# Measured values reported in PubChem BioAssay AID504832 (National Center for Advancing Translational Sciences (NCATS), 2011).
# The whole screen tested about 310,000 compounds, of which about 18,000 (5.8%) were called active. The inconclusive results got no clear call from the source; some entries with a clear call stand among them for comparison. Calls follow the shape of the dose curve; as a rule, active = well fitted inhibition curve with a large enough effect; inconclusive = small, poorly fitted or top-dose-only effect, or another doubt; inactive = no such curve, though single readings can be large or run the other way. Potencies of inconclusive entries are left out as doubtful fits.
# Assay: Primary qHTS for delayed death inhibitors of the malarial parasite plastid, 48 hour incubation
# Conditions: P. falciparum luciferase growth in erythrocytes; series mostly up to 28.7 µM
# How it was run: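 Compounds are pin-transferred into medium, infected erythrocytes (2% hematocrit, 0.1% parasitemia final) are added, and plates sit one parasite generation at 37 C in 5% CO2. Detection reagent is then added and luminescence measured.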
# Potency is read from the fitted curve at half-maximal effect; tags tell the direction and shape of the fitted curve.
row,Structure (SMILES),Potency
1,COc1ccc(Cl)cc1NC(=S)NC1CCCC1,"inconclusive [inhibitor, partial curve, poor fit]"
2,CN(C)S(=O)(=O)c1ccc(C(=O)N2CCCC2c2nc3ccccc3s2)cc1 (stereo unspecified),"inconclusive [inhibitor, single point]"
3,N/C(Cc1ccc([N+](=O)[O-])cc1)=N\OC(=O)C(c1ccccc1)c1ccccc1,"inconclusive [inhibitor, partial curve, poor fit]"
4,O=C(Nc1ccncc1)c1cccc(F)c1,"inconclusive [inhibitor, partial curve]"
5,COc1ccc(S(=O)(=O)N2CCN(C(=O)c3ccc4ccccc4n3)CC2)cc1,"inconclusive [inhibitor, single point]"
6,Cn1ccsc1=NC(=O)c1ccccc1OC(F)F,inactive
7,COc1cccc(/C=N/NC(=O)c2nnn(-c3nonc3N)c2CN(C)c2ccccc2)c1,inactive
8,O=C(CN1CCC(n2nnc3ccccc32)CC1)Nc1ccc2c(c1)CCC2,"inconclusive [inhibitor, single point]"
9,COCCNc1nc(N)c([N+](=O)[O-])c(NC2CCCCC2)n1,"inconclusive [inhibitor, partial curve]"
10,Cc1nnc(SCC(=O)N2CCN(c3ccccc3)CC2)n1C1CC1,"inconclusive [inhibitor, single point]"
11,COc1ccc(CS(=O)(=O)CC(C)(O)c2ccc(Cl)cc2)cc1 (stereo unspecified),inactive
12,COc1ccc(C(NC(=O)c2ccccc2F)NC(=O)c2ccccc2F)cc1,inactive
13,CCCNC(=S)N1CCC(C(=O)c2ccc(F)cc2)CC1,inactive
14,CSc1ccc(CCNC(=O)CCc2nnc3ccc(N4CCCC4)nn23)cc1,"inconclusive [inhibitor, single point]"
15,Cc1oc(-c2cccc(Cl)c2)nc1CN1CCC(C(=O)N2CCN(c3ccccc3F)CC2)CC1,"inconclusive [inhibitor, partial curve, poor fit]"
16,O=C1[C@H]2[C@@H](c3ccc(F)cc3)N3C(=O)N(c4ccc(C(F)(F)F)cc4)C(=O)[C@@]3(Cc3ccccc3)[C@H]2C(=O)N1C1CCCCC1,active: 4.65 µM
17,O=[N+]([O-])c1ccc2nc(-c3ccncc3)[nH]c2c1,active: 2.08 µM
18,Cc1cccc(N(CC(=O)NC2CCCCC2)C(=O)CCC(=O)Nc2nccs2)c1,"inconclusive [inhibitor, partial curve, poor fit]"
19,CCOc1ncccc1C(=O)Nc1cccc(-c2nnc3n2CCCCC3)c1,"inconclusive [inhibitor, partial curve]"
20,O=C(CSc1nnc(-c2ccc(F)cc2)c2ccccc12)Nc1ccccc1Cl,"inconclusive [inhibitor, single point]"
21,Cc1c(OCC(=O)NCc2ccccn2)ccc2c3c(c(=O)oc12)CCCC3,"inconclusive [inhibitor, single point]"
22,Cc1nc(NCCc2ccc(S(N)(=O)=O)cc2)c2c3c(sc2n1)CCC3,"inconclusive [inhibitor, single point]"

row,Structure (SMILES),Potency
1,CCn1c(=O)c(C(=O)NNC(=O)c2cccc(Cl)c2)c(O)c2ccccc21,inactive
2,CCCc1nc2ccc(NC(C)=O)cc2c(=O)n1Cc1ccccc1Cl,"inconclusive [inhibitor, single point]"
3,COc1cc(Cl)ccc1OCc1cc(C(=O)N2CCN(c3ccccn3)CC2)no1,inactive
4,COc1ccc(-n2c(Cc3cccn3C)nnc2SCC(=O)NCc2ccccc2Cl)cc1,active: 9.28 µM
5,COc1ccccc1C(=O)Nc1ccnn1C1CCN(CCC(C)c2ccc(C)o2)CC1 (stereo unspecified),"inconclusive [inhibitor, single point]"
6,CN1CCc2c(sc(NC(=O)c3ccc([N+](=O)[O-])o3)c2C(N)=O)C1,"inconclusive [inhibitor, partial curve]"
7,CCCCN=C1CC(C)(C)CC(=O)/C1=C(/O)CCCN1C(=O)c2ccccc2C1=O,"inconclusive [inhibitor, single point]"
8,COc1ccc2c(c1)c(C(=O)CN1CCC(C(N)=O)CC1)c(C)n2C,"inconclusive [inhibitor, single point]"
9,c1ccc2c(c1)SCc1nnc(-c3ccncc3)n1-2,inactive
10,COC(=O)CN(c1nc(C)c(Br)c(OC)n1)S(=O)(=O)c1ccc(C)cc1,"inconclusive [inhibitor, partial curve, poor fit]"
11,C=CCn1c(=O)c2c(C)c(C)sc2n2c(Nc3ccc(OC)cc3)nnc12,"inconclusive [inhibitor, single point]"
12,CCCc1cc(-c2n[nH]c(=S)n2CC)c2ccccc2n1,active: 1.31 µM
13,CCOCCn1c(=O)c2c(nc3n2CCCN3CCc2ccccc2)n(C)c1=O,"inconclusive [inhibitor, partial curve]"
14,CCC(Oc1ccccc1)C(=O)Nc1ccccc1N1CCCC1 (stereo unspecified),"inconclusive [inhibitor, single point]"
15,Cn1c(SCC(=O)Nc2ccc(Cl)cc2F)nnc1-c1ccco1,inactive
16,CC(=O)NC(CC(=O)OCc1ccc([N+](=O)[O-])cc1)c1ccccc1 (stereo unspecified),"inconclusive [inhibitor, full curve, poor fit]"
17,Cc1noc(C)c1S(=O)(=O)NCc1cccc(Cl)c1,inactive
18,COc1ccc(OCCCC(=O)OCC(=O)c2ccc3c(c2)NC(=O)CO3)cc1,inactive
19,O=C(NCC1CCCCC1)c1cccc(-c2ccc(O)cc2)c1,"inconclusive [inhibitor, single point]"
20,N#C/C(=C\c1ccc(O)c(O)c1)C(=O)N1CCc2ccccc21,"inconclusive [inhibitor, single point]"
21,Cc1ccccc1N(CC(=O)NC(C)(C)C)C(=O)c1ccc(-c2ccccc2)[nH]1,"inconclusive [inhibitor, partial curve, poor fit]"
22,CCCCC(=O)NC(NC(=S)N1CCOCC1)C(Cl)(Cl)Cl (stereo unspecified),active: 8.28 µM

row,Structure (SMILES),Potency
1,Cc1cccc2sc(NNC(=O)c3cc(-c4cccs4)nc4ccccc34)nc12,"inconclusive [inhibitor, full curve]"
2,COC(=O)c1cc(OC)c(OC)cc1NC(=O)Cc1cccs1,"inconclusive [inhibitor, partial curve, poor fit]"
3,Cc1ccc(-c2nn(-c3ccccc3)cc2/C=C/C(=O)Nc2nccs2)cc1,"inconclusive [inhibitor, single point]"
4,OCC[C@H]1C[C@H](O)[C@@H](O)[C@@]2(OCCCc3ccccc32)O1,"inconclusive [inhibitor, single point]"
5,Cc1ccc2[nH]c(=O)c3cc(C(=O)N(C)c4ccc(C)c(C)c4)sc3c2c1,"inconclusive [inhibitor, partial curve, poor fit]"
6,CCOc1cc2c(cc1OCC)-n1cccc1C(c1ccc(F)cc1)NC2 (stereo unspecified),"inconclusive [inhibitor, partial curve, poor fit]"
7,CCc1ccc(CN(C)C(=O)c2cc(COc3cccc4cnccc34)on2)cc1,"inconclusive [inhibitor, partial curve, poor fit]"
8,CC(=O)c1cccc(NCC(=O)Nc2cccc(S(=O)(=O)N3CCCCC3)c2)c1,"inconclusive [inhibitor, partial curve, poor fit]"
9,COc1ccc(C(CCN2CCCCC2)c2c(OC)cc(OC)c3c(-c4ccccc4)cc(=O)oc23)cc1 (stereo unspecified),active: 10.4 µM
10,CCN1C(=O)[C@H]2[C@@H](c3ccc(-c4ccc(OC)cc4)cc3)N[C@@](Cc3ccccc3)(C(=O)OC)[C@H]2C1=O,active: 9.28 µM
11,O=C(CN(CC1CCCO1)C(=O)CCC(=O)Nc1ccccn1)NCc1ccccc1 (stereo unspecified),"inconclusive [inhibitor, partial curve, poor fit]"
12,O=C(CCc1ccccc1)Nc1ccc(N2CCOCC2)c(Cl)c1,"inconclusive [inhibitor, partial curve, poor fit]"
13,Cc1ccc(O)c(C(=O)c2coc(=N)c(C(=O)NC(C)C)c2)c1,"inconclusive [inhibitor, single point]"
14,CCCCNC(=O)N1CCN(C(=O)C2CCCO2)CC1 (stereo unspecified),"inconclusive [inhibitor, single point]"
15,Cc1cccc(NC(=S)NCCc2ccc(Cl)cc2)c1C,active: 2.94 µM
16,CCOc1ccc(-n2c(SCC(=O)Nc3ccc(OC)cc3OC)nc3c(c2=O)SCC3)cc1,"inconclusive [inhibitor, partial curve]"
17,COC(=O)C1=C(c2ccc(F)cc2F)C[C@@H]2CC[C@H]1N2C(=O)NCc1ccco1,"inconclusive [inhibitor, single point]"
18,CCN(CC(=O)Nc1ccc(NC(C)=O)cc1)C(=O)c1oc2c(ccc3ccccc32)c1C,"inconclusive [inhibitor, partial curve, poor fit]"
19,O=C(NCc1nc2ccccc2[nH]1)c1ccc([N+](=O)[O-])cc1,inactive
20,CCSc1nc2nc(C)cc(C)n2n1,inactive
21,CN1c2ccccc2C(C)(C)C12CCCC(=O)N2 (stereo unspecified),"inconclusive [inhibitor, full curve, poor fit]"
22,Cc1cccc(CNC(=O)CCc2nnc(C3CCCCC3)o2)c1,inactive
